{"source": "the supplement of paper PMC8728848", "binders": {"B1": {"name": "FimA-N3 (Actinomyces oris) (protein)", "chain": "MHHHHHHSSGVDLGTENLYFQSNAGLQGAQFQLYKAKNAYANTCSNEKEGAPIAINGQTTLTTDAQGAIDIKGLFISDSIDGADRDNQVNAMERCYVLVETKAPAGYVLPAGNGAATPVKVKAGEETTDN"}}, "experiment_in_all_cases": "glycan array binding signal (z-score within array); higher = stronger binding", "conditions_in_all_cases": "glycan notation: IUPAC condensed, linker removed", "key": {"[1]": {"biological_target": "GalNAc(b1-4)GlcNAc(b1-2)Man", "how_it_was_run": "(§1)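 From the Consortium for Functional Glycomics database, 3228 arrays were curated, keeping only those whose protein sequence was available. Binding is given as a within-array Z-score averaged across arrays sharing a protein sequence and across linkers. Negative Z-scores can be read as non-binding.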"}, "[2]": {"biological_target": "GalNAc(b1-4)GlcNAc(b1-2)Man(a1-3)[GalNAc(b1-4)GlcNAc(b1-2)Man(a1-6)]Man(b1-4)GlcNAc(b1-4)GlcNAc", "how_it_was_run": "as §1"}, "[3]": {"biological_target": "GalNAc(b1-4)GlcNAc(b1-3)GalNAc(b1-4)GlcNAc", "how_it_was_run": "as §1"}, "GalNAc(b1-4)GlcNAc6S": {"biological_target": "GalNAc(b1-4)GlcNAc6S", "how_it_was_run": "as §1"}, "GalNAc(b1-6)GalNAc": {"biological_target": "GalNAc(b1-6)GalNAc", "how_it_was_run": "as §1"}, "GalNAc3S(b1-4)GlcNAc": {"biological_target": "GalNAc3S(b1-4)GlcNAc", "how_it_was_run": "as §1"}, "GalNAc3S(b1-4)GlcNAc3S": {"biological_target": "GalNAc3S(b1-4)GlcNAc3S", "how_it_was_run": "as §1"}, "[4]": {"biological_target": "GalNAc3S(b1-4)[Fuc(a1-3)]GlcNAc", "how_it_was_run": "as §1"}, "GalNAc4S6S(b1-4)GlcNAc": {"biological_target": "GalNAc4S6S(b1-4)GlcNAc", "how_it_was_run": "as §1"}, "GalNAc6S(b1-4)GlcNAc": {"biological_target": "GalNAc6S(b1-4)GlcNAc", "how_it_was_run": "as §1"}, "Glc(a1-4)Glc": {"biological_target": "Glc(a1-4)Glc", "how_it_was_run": "as §1"}, "[5]": {"biological_target": "Glc(a1-4)Glc(a1-4)Glc(a1-4)Glc", "how_it_was_run": "as §1"}, "Glc(a1-6)Glc(a1-6)Glc": {"biological_target": "Glc(a1-6)Glc(a1-6)Glc", "how_it_was_run": "as §1"}, "[6]": {"biological_target": "Glc(a1-6)Glc(a1-6)Glc(a1-6)Glc", "how_it_was_run": "as §1"}, "Glc(b1-4)Glc": {"biological_target": "Glc(b1-4)Glc", "how_it_was_run": "as §1"}, "Glc(b1-6)Glc": {"biological_target": "Glc(b1-6)Glc", "how_it_was_run": "as §1"}, "GlcA(b1-3)Gal": {"biological_target": "GlcA(b1-3)Gal", "how_it_was_run": "as §1"}, "GlcA(b1-3)GlcNAc": {"biological_target": "GlcA(b1-3)GlcNAc", "how_it_was_run": "as §1"}, "GlcA(b1-6)Gal": {"biological_target": "GlcA(b1-6)Gal", "how_it_was_run": "as §1"}, "[7]": {"biological_target": "GlcA3S(b1-3)Gal(b1-4)GlcNAc(b1-2)Man", "how_it_was_run": "as §1"}, "[8]": {"biological_target": "GlcA3S(b1-3)Gal(b1-4)GlcNAc(b1-3)Gal(b1-4)Glc", "how_it_was_run": "as §1"}, "[9]": {"biological_target": "GlcNAc(a1-3)Gal(b1-4)GlcNAc", "how_it_was_run": "as §1"}, "[10]": {"biological_target": "GlcNAc(a1-4)Gal(b1-3)GlcNAc", "how_it_was_run": "as §1"}, "[11]": {"biological_target": "GlcNAc(a1-4)Gal(b1-4)GalNAc", "how_it_was_run": "as §1"}, "[12]": {"biological_target": "GlcNAc(a1-4)Gal(b1-4)GlcNAc", "how_it_was_run": "as §1"}, "[13]": {"biological_target": "GlcNAc(a1-4)Gal(b1-4)GlcNAc(b1-3)Gal(b1-4)Glc", "how_it_was_run": "as §1"}, "[14]": {"biological_target": "GlcNAc(a1-4)Gal(b1-4)GlcNAc(b1-3)Gal(b1-4)GlcNAc", "how_it_was_run": "as §1"}, "[15]": {"biological_target": "GlcNAc(a1-4)Gal(b1-4)GlcNAc(b1-3)Gal(b1-4)GlcNAc(b1-3)Gal(b1-4)GlcNAc", "how_it_was_run": "as §1"}, "[16]": {"biological_target": "GlcNAc(a1-4)Gal(b1-4)GlcNAc(b1-3)Gal(b1-4)[Fuc(a1-3)]GlcNAc(b1-3)Gal(b1-4)[Fuc(a1-3)]GlcNAc", "how_it_was_run": "as §1"}, "[17]": {"biological_target": "GlcNAc(a1-6)Gal(b1-4)GlcNAc", "how_it_was_run": "as §1"}, "[18]": {"biological_target": "GlcNAc(b1-2)Gal(b1-3)GalNAc", "how_it_was_run": "as §1"}, "[19]": {"biological_target": "GlcNAc(b1-2)Man(a1-3)[GlcNAc(b1-2)Man(a1-6)]Man(b1-4)GlcNAc(b1-4)GlcNAc", "how_it_was_run": "as §1"}, "[20]": {"biological_target": "GlcNAc(b1-2)Man(a1-3)[GlcNAc(b1-2)Man(a1-6)]Man(b1-4)GlcNAc(b1-4)[Fuc(a1-6)]GlcNAc", "how_it_was_run": "as §1"}, "[21]": {"biological_target": "GlcNAc(b1-2)Man(a1-3)[GlcNAc(b1-4)][GlcNAc(b1-2)Man(a1-6)]Man(b1-4)GlcNAc(b1-4)GlcNAc", "how_it_was_run": "as §1"}, "[22]": {"biological_target": "GlcNAc(b1-2)Man(a1-3)[GlcNAc(b1-4)][GlcNAc(b1-2)Man(a1-6)]Man(b1-4)GlcNAc(b1-4)[Fuc(a1-6)]GlcNAc", "how_it_was_run": "as §1"}, "[23]": {"biological_target": "GlcNAc(b1-2)[GlcNAc(b1-4)]Man(a1-3)[GlcNAc(b1-2)Man(a1-6)]Man(b1-4)GlcNAc(b1-4)GlcNAc", "how_it_was_run": "as §1"}, "[24]": {"biological_target": "GlcNAc(b1-2)[GlcNAc(b1-4)]Man(a1-3)[GlcNAc(b1-4)][GlcNAc(b1-2)Man(a1-6)]Man(b1-4)GlcNAc(b1-4)GlcNAc", "how_it_was_run": "as §1"}, "[25]": {"biological_target": "GlcNAc(b1-2)[GlcNAc(b1-4)]Man(a1-3)[GlcNAc(b1-4)][GlcNAc(b1-2)[GlcNAc(b1-6)]Man(a1-6)]Man(b1-4)GlcNAc(b1-4)GlcNAc", "how_it_was_run": "as §1"}, "[26]": {"biological_target": "GlcNAc(b1-2)[GlcNAc(b1-4)]Man(a1-3)[GlcNAc(b1-4)][GlcNAc(b1-2)[GlcNAc(b1-6)]Man(a1-6)]Man(b1-4)GlcNAc(b1-4)[Fuc(a1-6)]GlcNAc", "how_it_was_run": "as §1"}, "[27]": {"biological_target": "GlcNAc(b1-2)[GlcNAc(b1-6)]Man(a1-6)[GlcNAc(b1-2)Man(a1-3)]Man(b1-4)GlcNAc(b1-4)GlcNAc", "how_it_was_run": "as §1"}, "[28]": {"biological_target": "GlcNAc(b1-2)[GlcNAc(b1-6)]Man(a1-6)[GlcNAc(b1-2)Man(a1-3)]Man(b1-4)GlcNAc(b1-4)[Fuc(a1-6)]GlcNAc", "how_it_was_run": "as §1"}, "[29]": {"biological_target": "GlcNAc(b1-2)[GlcNAc(b1-6)]Man(a1-6)[GlcNAc(b1-4)][GlcNAc(b1-2)Man(a1-3)]Man(b1-4)GlcNAc(b1-4)GlcNAc", "how_it_was_run": "as §1"}, "GlcNAc(b1-3)Fuc": {"biological_target": "GlcNAc(b1-3)Fuc", "how_it_was_run": "as §1"}, "GlcNAc(b1-3)Gal": {"biological_target": "GlcNAc(b1-3)Gal", "how_it_was_run": "as §1"}, "[30]": {"biological_target": "GlcNAc(b1-3)Gal(b1-3)GalNAc", "how_it_was_run": "as §1"}}, "note": "Some of the results follow."}
{"binder": "B1", "values": [{"measurement": "glycan array binding signal (z-score)", "setting": "[1]", "value": -0.129}, {"measurement": "glycan array binding signal (z-score)", "setting": "[2]", "value": 0.026}, {"measurement": "glycan array binding signal (z-score)", "setting": "[3]", "value": -0.42}, {"measurement": "glycan array binding signal (z-score)", "setting": "GalNAc(b1-4)GlcNAc6S", "value": -0.302}, {"measurement": "glycan array binding signal (z-score)", "setting": "GalNAc(b1-6)GalNAc", "value": 2.29}, {"measurement": "glycan array binding signal (z-score)", "setting": "GalNAc3S(b1-4)GlcNAc", "value": -0.182}, {"measurement": "glycan array binding signal (z-score)", "setting": "GalNAc3S(b1-4)GlcNAc3S", "value": -0.198}, {"measurement": "glycan array binding signal (z-score)", "setting": "[4]", "value": -0.42}, {"measurement": "glycan array binding signal (z-score)", "setting": "GalNAc4S6S(b1-4)GlcNAc", "value": -0.106}, {"measurement": "glycan array binding signal (z-score)", "setting": "GalNAc6S(b1-4)GlcNAc", "value": 1.1}, {"measurement": "glycan array binding signal (z-score)", "setting": "Glc(a1-4)Glc", "value": -0.453}, {"measurement": "glycan array binding signal (z-score)", "setting": "[5]", "value": -0.03}, {"measurement": "glycan array binding signal (z-score)", "setting": "Glc(a1-6)Glc(a1-6)Glc", "value": -0.527}, {"measurement": "glycan array binding signal (z-score)", "setting": "[6]", "value": -0.494}, {"measurement": "glycan array binding signal (z-score)", "setting": "Glc(b1-4)Glc", "value": -0.091}, {"measurement": "glycan array binding signal (z-score)", "setting": "Glc(b1-6)Glc", "value": 0.01}, {"measurement": "glycan array binding signal (z-score)", "setting": "GlcA(b1-3)Gal", "value": -0.096}, {"measurement": "glycan array binding signal (z-score)", "setting": "GlcA(b1-3)GlcNAc", "value": 0.079}, {"measurement": "glycan array binding signal (z-score)", "setting": "GlcA(b1-6)Gal", "value": 0.264}, {"measurement": "glycan array binding signal (z-score)", "setting": "[7]", "value": -0.28}, {"measurement": "glycan array binding signal (z-score)", "setting": "[8]", "value": -0.178}, {"measurement": "glycan array binding signal (z-score)", "setting": "[9]", "value": 0.196}, {"measurement": "glycan array binding signal (z-score)", "setting": "[10]", "value": 0.148}, {"measurement": "glycan array binding signal (z-score)", "setting": "[11]", "value": -0.322}, {"measurement": "glycan array binding signal (z-score)", "setting": "[12]", "value": -0.148}, {"measurement": "glycan array binding signal (z-score)", "setting": "[13]", "value": 0.207}, {"measurement": "glycan array binding signal (z-score)", "setting": "[14]", "value": -0.396}, {"measurement": "glycan array binding signal (z-score)", "setting": "[15]", "value": -0.21}, {"measurement": "glycan array binding signal (z-score)", "setting": "[16]", "value": 0.399}, {"measurement": "glycan array binding signal (z-score)", "setting": "[17]", "value": -0.298}, {"measurement": "glycan array binding signal (z-score)", "setting": "[18]", "value": -0.175}, {"measurement": "glycan array binding signal (z-score)", "setting": "[19]", "value": -0.143}, {"measurement": "glycan array binding signal (z-score)", "setting": "[20]", "value": 0.297}, {"measurement": "glycan array binding signal (z-score)", "setting": "[21]", "value": -0.204}, {"measurement": "glycan array binding signal (z-score)", "setting": "[22]", "value": -0.202}, {"measurement": "glycan array binding signal (z-score)", "setting": "[23]", "value": -0.565}, {"measurement": "glycan array binding signal (z-score)", "setting": "[24]", "value": -0.59}, {"measurement": "glycan array binding signal (z-score)", "setting": "[25]", "value": -0.605}, {"measurement": "glycan array binding signal (z-score)", "setting": "[26]", "value": -0.394}, {"measurement": "glycan array binding signal (z-score)", "setting": "[27]", "value": -0.636}, {"measurement": "glycan array binding signal (z-score)", "setting": "[28]", "value": -0.252}, {"measurement": "glycan array binding signal (z-score)", "setting": "[29]", "value": -0.405}, {"measurement": "glycan array binding signal (z-score)", "setting": "GlcNAc(b1-3)Fuc", "value": 3.03}, {"measurement": "glycan array binding signal (z-score)", "setting": "GlcNAc(b1-3)Gal", "value": -0.452}, {"measurement": "glycan array binding signal (z-score)", "setting": "[30]", "value": -0.138}]}
